Paper PMC6888108
No constants are given. Whether binding was seen depends on the method and setting. Some binding calls cover weakened binding; strength is not graded here.

T1: C-terminal cytoplasmic fragment of the formin FH5 comprising the FH1 and FH2 domains (FH5_Cterm) (Arabidopsis thaliana) (UniProt Q94B77)
T1 sequence: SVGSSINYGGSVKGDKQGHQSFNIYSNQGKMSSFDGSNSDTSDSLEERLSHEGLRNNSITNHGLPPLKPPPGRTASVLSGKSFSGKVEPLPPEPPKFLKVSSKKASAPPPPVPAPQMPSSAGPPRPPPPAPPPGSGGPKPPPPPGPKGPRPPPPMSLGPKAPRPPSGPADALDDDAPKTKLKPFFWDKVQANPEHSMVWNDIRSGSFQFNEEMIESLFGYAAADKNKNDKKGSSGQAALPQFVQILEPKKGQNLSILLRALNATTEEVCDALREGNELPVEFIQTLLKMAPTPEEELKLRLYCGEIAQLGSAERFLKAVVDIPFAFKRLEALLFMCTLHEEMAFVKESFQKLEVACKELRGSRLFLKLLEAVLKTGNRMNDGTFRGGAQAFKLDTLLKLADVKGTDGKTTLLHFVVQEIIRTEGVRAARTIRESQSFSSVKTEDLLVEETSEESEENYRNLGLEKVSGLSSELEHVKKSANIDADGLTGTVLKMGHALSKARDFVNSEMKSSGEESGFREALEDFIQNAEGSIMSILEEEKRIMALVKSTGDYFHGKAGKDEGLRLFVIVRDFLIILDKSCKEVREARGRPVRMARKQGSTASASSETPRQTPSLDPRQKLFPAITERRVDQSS

T2: DRP1A (At5g42080), dynamin-related protein 1A (Arabidopsis thaliana) (UniProt P42697)
T2 sequence: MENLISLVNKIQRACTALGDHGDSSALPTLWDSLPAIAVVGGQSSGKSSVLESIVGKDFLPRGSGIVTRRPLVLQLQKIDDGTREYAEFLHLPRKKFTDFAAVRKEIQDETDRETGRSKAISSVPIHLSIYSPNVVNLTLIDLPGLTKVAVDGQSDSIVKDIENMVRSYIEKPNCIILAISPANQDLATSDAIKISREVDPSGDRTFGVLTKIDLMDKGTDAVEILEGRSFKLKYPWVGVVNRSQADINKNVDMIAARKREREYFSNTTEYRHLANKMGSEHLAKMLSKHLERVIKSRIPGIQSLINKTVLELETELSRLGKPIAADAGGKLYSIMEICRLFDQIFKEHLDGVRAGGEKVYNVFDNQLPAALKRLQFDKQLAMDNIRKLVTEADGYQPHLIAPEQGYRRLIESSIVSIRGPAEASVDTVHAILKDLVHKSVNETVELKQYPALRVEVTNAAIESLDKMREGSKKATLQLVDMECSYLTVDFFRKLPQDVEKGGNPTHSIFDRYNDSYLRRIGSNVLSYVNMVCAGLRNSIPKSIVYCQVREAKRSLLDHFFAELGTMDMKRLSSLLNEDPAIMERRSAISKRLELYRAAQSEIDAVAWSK

B1: SH3P3 (AtSH3P3, At4g18060), Arabidopsis thaliana SH3 and BAR domain-containing protein (protein, UniProt Q8L7W0 1-351)
chain: MDAFRRQASKLRDQVAKQQLAVIKQFSGTGYESSDVMVIDELEMQRHHQLDKLYRSTRSAKEFQRDIVKAAEAFTTIGLRHIEAGTKLSEDCCRYGNENSQNIDENILAKAAAIYGDARKHVDKEQEDFNKLLASQVLDPLRAMVAGSPLEDARHLAQRYSRMRQEAETHATEVSRRQARVREAPIPENVAKLQLAEAKMQELKANMAVLGKEATAALAAVESQQHRLTFQRLVAMVEGEKNYHLRIAAILSDIEAEMVTEKQHKESAPPAIPTENGSEKTSYFLAEVIHPFSAASEKELDLDKGDYIVVRKVSQTGWAEGECKGKAGWFPMAYIEKRQRLPTTNFAAEVY
B2: SH3P2 (AtSH3P2, At4g34660), Arabidopsis thaliana SH3 and BAR domain-containing protein (protein, UniProt Q8VWF1 1-368)
chain: MDAIRKQASRLREQVARQQQAVFKQFGGGGYGSGLADEAELNQHQKLEKLYISTRAAKHYQRDIVRGVEGYIVTGSKQVEIGTKLSEDSRKYGSENTCTNGNVLTRAALNYGRARAQMEKERGNMLKALGTQVAEPLRAMVLGAPLEDARHLAQRYDRMRQEAEAQATEVARRQAKARESQGNPDILMKLESAEAKLHDLKSNMTILGKEAASALASVEDQQQKLTLERLLSMVESERAYHQRVLQILDQLEGEMVSERQRIEAPSTPSSADSMPPPPSYEEANGVFASQMHDTSTDSMGYFLGEVLFPYHGVTDVELSLSTGEYVVVRKVTGSGWAEGECKGKAGWFPYGYIERRERVLASKVSEVF

How the values were obtained:
Assay in all cases: two-hybrid; … GAL4 Two-Hybrid System 3, yeast AH109; DBD fusions (pGBKT7) with AD fusions (pGADT7); dilution series on -His -Leu -Trp with 5 mM 3-aminotriazole and on -Ade -His -Leu -Trp (stringent)
[1] = target: T1, C-terminal cytoplasmic fragment of the formin FH5 comprising the FH1 and FH2 domains (FH5_Cterm) (Arabidopsis thaliana)
[2] = target: T2, DRP1A (At5g42080), dynamin-related protein 1A (Arabidopsis thaliana)
[3] = target: SH3P2 (AtSH3P2, At4g34660), Arabidopsis thaliana SH3 and BAR domain-containing protein (Arabidopsis thaliana) (UniProt Q8VWF1)

Row | Binder | binding [1] | binding [2] | binding [3]
1 | B1 | binds | no binding | 
2 | B2 | no binding | binds | binds
